From the supplement of paper PMC9151546
Most values come without repeats; read them as rough.

How the values were obtained:
CHO-K1 [1] = test: relative survival (nuclei to bead ratio vs DMSO control) (% of vehicle control); higher = more surviving cells
Method: (§1)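 Flow-cytometric in vitro micronucleus assay (Litron MicroFlow) in CHO-K1 cells in 96-well plates, 19 concentrations (4.5-200 µM, n=1 per concentration). Without S9, cells were exposed for 24 h and sampled at 48 h. With Aroclor 1254-induced rat liver S9, cells were exposed for 3-4 h and sampled at 27-28 h. Read-outs are %MN and %hypodiploid nuclei relative to nucleated events, and relative survival as the nuclei-to-bead ratio versus the 1% DMSO vehicle control (x100).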

CHO-K1 [2] = test: hypodiploid nuclei frequency (% of nucleated events); higher = more hypodiploid events (aneugenic)
Method: as §1

CHO-K1 [3] = test: micronucleus frequency (% of nucleated events); higher = more micronuclei (genotoxic)
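For hypodiploid nuclei frequency (% of nucleated events) in this document: hypodiploid nuclei gated on a flow cytometer with 488 nm excitation after SYTOX Green staining, cultures at 37 °C, positive controls vinblastine without S9 and cyclophosphamide with S9.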
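For micronucleus frequency (% of nucleated events) in this document: cells lysed with nuclei stained by SYTOX Green, then micronucleus-gated events counted against nucleated events by flow cytometry with 488 nm excitation.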
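For relative survival (nuclei to bead ratio vs DMSO control) in this document: Lysed-cell nuclei stained with SYTOX Green and counted against counting beads by flow cytometry at 488 nm excitation, with vinblastine (no S9) and cyclophosphamide (plus S9) as positive controls.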

Nc1ccccc1N [1,2-Phenylenediamine]
Conditions | hypodiploid nuclei frequency, CHO-K1 [2] [%] | micronucleus frequency, CHO-K1 [3] [%] | relative survival, CHO-K1 [1]
concentration: 4.53 (µM), S9 metabolic activation: with S9, exposure time: 3-4 hours | 0.34 | 0.74 | 96
concentration: 4.53 (µM), S9 metabolic activation: without S9, exposure time: 24 hours | 0.44 | 1.48 | 70
concentration: 5.66 (µM), S9 metabolic activation: with S9, exposure time: 3-4 hours | 0.26 | 1.04 | 88.9
concentration: 5.66 (µM), S9 metabolic activation: without S9, exposure time: 24 hours | 0.64 | 1.48 | 89.4
concentration: 7.07 (µM), S9 metabolic activation: with S9, exposure time: 3-4 hours | 0.44 | 0.92 | 80.5
concentration: 7.07 (µM), S9 metabolic activation: without S9, exposure time: 24 hours | 0.86 | 2.18 | 105
concentration: 8.84 (µM), S9 metabolic activation: with S9, exposure time: 3-4 hours | 0.26 | 0.78 | 85.2
concentration: 8.84 (µM), S9 metabolic activation: without S9, exposure time: 24 hours | 0.66 | 2.08 | 92.9
concentration: 11.1 (µM), S9 metabolic activation: with S9, exposure time: 3-4 hours | 0.26 | 1.02 | 99.8
concentration: 11.1 (µM), S9 metabolic activation: without S9, exposure time: 24 hours | 0.52 | 1.34 | 90.8
concentration: 13.8 (µM), S9 metabolic activation: with S9, exposure time: 3-4 hours | 0.22 | 1 | 88.2
concentration: 13.8 (µM), S9 metabolic activation: without S9, exposure time: 24 hours | 0.46 | 1.52 | 97.4
concentration: 17.3 (µM), S9 metabolic activation: with S9, exposure time: 3-4 hours | 0.28 | 1.22 | 103
concentration: 17.3 (µM), S9 metabolic activation: without S9, exposure time: 24 hours | 0.66 | 1.56 | 85.9
concentration: 21.6 (µM), S9 metabolic activation: with S9, exposure time: 3-4 hours | 0.22 | 0.56 | 90
concentration: 21.6 (µM), S9 metabolic activation: without S9, exposure time: 24 hours | 0.5 | 1.76 | 87.1
concentration: 27 (µM), S9 metabolic activation: with S9, exposure time: 3-4 hours | 0.28 | 1.14 | 109
concentration: 27 (µM), S9 metabolic activation: without S9, exposure time: 24 hours | 0.66 | 1.3 | 93.2
concentration: 33.7 (µM), S9 metabolic activation: with S9, exposure time: 3-4 hours | 0.36 | 1.08 | 117
concentration: 33.7 (µM), S9 metabolic activation: without S9, exposure time: 24 hours | 0.52 | 1.7 | 99.8
concentration: 42.2 (µM), S9 metabolic activation: with S9, exposure time: 3-4 hours | 0.18 | 0.96 | 95.5
concentration: 42.2 (µM), S9 metabolic activation: without S9, exposure time: 24 hours | 0.98 | 1.44 | 64.8
concentration: 52.7 (µM), S9 metabolic activation: with S9, exposure time: 3-4 hours | 0.32 | 1.08 | 85.6
concentration: 52.7 (µM), S9 metabolic activation: without S9, exposure time: 24 hours | 1.14 | 1.72 | 78.5
concentration: 65.9 (µM), S9 metabolic activation: with S9, exposure time: 3-4 hours | 0.22 | 1.14 | 79.4
concentration: 65.9 (µM), S9 metabolic activation: without S9, exposure time: 24 hours | 1.5 | 1.98 | 67.5
concentration: 82.3 (µM), S9 metabolic activation: with S9, exposure time: 3-4 hours | 0.22 | 1.6 | 96.8
concentration: 82.3 (µM), S9 metabolic activation: without S9, exposure time: 24 hours | 2.46 | 2.3 | 49
concentration: 103 (µM), S9 metabolic activation: with S9, exposure time: 3-4 hours | 0.32 | 1.56 | 79.5
concentration: 103 (µM), S9 metabolic activation: without S9, exposure time: 24 hours | – | – | 33.8
concentration: 129 (µM), S9 metabolic activation: with S9, exposure time: 3-4 hours | 0.4 | 2.24 | 71.8
concentration: 129 (µM), S9 metabolic activation: without S9, exposure time: 24 hours | – | – | 25.3
concentration: 161 (µM), S9 metabolic activation: with S9, exposure time: 3-4 hours | 0.34 | 2.52 | 77.3
concentration: 161 (µM), S9 metabolic activation: without S9, exposure time: 24 hours | – | – | 5.8
concentration: 201 (µM), S9 metabolic activation: with S9, exposure time: 3-4 hours | 0.26 | 1.9 | 75.6
concentration: 201 (µM), S9 metabolic activation: without S9, exposure time: 24 hours | – | – | 0.48

C/C=C\c1ccc(O)c(OC)c1 [Isoeugenol]
Conditions | hypodiploid nuclei frequency, CHO-K1 [2] [%] | micronucleus frequency, CHO-K1 [3] [%] | relative survival, CHO-K1 [1]
concentration: 4.5 (µM), S9 metabolic activation: with S9, exposure time: 3-4 hours | 0.2 | 1.42 | 119
concentration: 4.5 (µM), S9 metabolic activation: without S9, exposure time: 24 hours | 0.68 | 1.94 | 142
concentration: 5.63 (µM), S9 metabolic activation: with S9, exposure time: 3-4 hours | 0.14 | 1.9 | 115
concentration: 5.63 (µM), S9 metabolic activation: without S9, exposure time: 24 hours | 0.8 | 1.64 | 154
concentration: 7.04 (µM), S9 metabolic activation: with S9, exposure time: 3-4 hours | 0.3 | 1.44 | 139
concentration: 7.04 (µM), S9 metabolic activation: without S9, exposure time: 24 hours | 0.58 | 2.14 | 117
concentration: 8.8 (µM), S9 metabolic activation: with S9, exposure time: 3-4 hours | 0.28 | 1.1 | 140
concentration: 8.8 (µM), S9 metabolic activation: without S9, exposure time: 24 hours | 0.5 | 1.48 | 166
concentration: 11 (µM), S9 metabolic activation: with S9, exposure time: 3-4 hours | 0.12 | 0.96 | 132
concentration: 11 (µM), S9 metabolic activation: without S9, exposure time: 24 hours | 0.64 | 1.62 | 148
concentration: 13.7 (µM), S9 metabolic activation: with S9, exposure time: 3-4 hours | 0.28 | 1.24 | 146
concentration: 13.7 (µM), S9 metabolic activation: without S9, exposure time: 24 hours | 0.7 | 2.14 | 118
concentration: 17.2 (µM), S9 metabolic activation: with S9, exposure time: 3-4 hours | 0.12 | 1.32 | 133
concentration: 17.2 (µM), S9 metabolic activation: without S9, exposure time: 24 hours | 0.5 | 1.36 | 145
concentration: 21.5 (µM), S9 metabolic activation: with S9, exposure time: 3-4 hours | 0.18 | 1.2 | 134
concentration: 21.5 (µM), S9 metabolic activation: without S9, exposure time: 24 hours | 0.84 | 1.94 | 120
concentration: 26.8 (µM), S9 metabolic activation: with S9, exposure time: 3-4 hours | 0.32 | 1.02 | 128
concentration: 26.8 (µM), S9 metabolic activation: without S9, exposure time: 24 hours | 0.68 | 1.36 | 137
concentration: 33.6 (µM), S9 metabolic activation: with S9, exposure time: 3-4 hours | 0.22 | 1.2 | 154
concentration: 33.6 (µM), S9 metabolic activation: without S9, exposure time: 24 hours | 0.86 | 1.58 | 156
concentration: 41.9 (µM), S9 metabolic activation: with S9, exposure time: 3-4 hours | 0.1 | 1.1 | 120
concentration: 41.9 (µM), S9 metabolic activation: without S9, exposure time: 24 hours | 0.7 | 1.56 | 118
concentration: 52.4 (µM), S9 metabolic activation: with S9, exposure time: 3-4 hours | 0.16 | 0.76 | 118
concentration: 52.4 (µM), S9 metabolic activation: without S9, exposure time: 24 hours | 0.8 | 1.28 | 146
concentration: 65.5 (µM), S9 metabolic activation: with S9, exposure time: 3-4 hours | 0.12 | 0.98 | 119
concentration: 65.5 (µM), S9 metabolic activation: without S9, exposure time: 24 hours | 0.96 | 1.68 | 133
concentration: 81.9 (µM), S9 metabolic activation: with S9, exposure time: 3-4 hours | 0.22 | 1.16 | 122
concentration: 81.9 (µM), S9 metabolic activation: without S9, exposure time: 24 hours | 1.12 | 1.4 | 108
concentration: 102 (µM), S9 metabolic activation: with S9, exposure time: 3-4 hours | 0.32 | 0.98 | 130
concentration: 102 (µM), S9 metabolic activation: without S9, exposure time: 24 hours | 1.18 | 1.68 | 102
concentration: 128 (µM), S9 metabolic activation: with S9, exposure time: 3-4 hours | 0.18 | 1.1 | 120
concentration: 128 (µM), S9 metabolic activation: without S9, exposure time: 24 hours | 1.56 | 2.26 | 86
concentration: 160 (µM), S9 metabolic activation: with S9, exposure time: 3-4 hours | 0.14 | 1.18 | 111
concentration: 160 (µM), S9 metabolic activation: without S9, exposure time: 24 hours | 1.24 | 2.56 | 110
concentration: 200 (µM), S9 metabolic activation: with S9, exposure time: 3-4 hours | 0.2 | 1.16 | 90.5
concentration: 200 (µM), S9 metabolic activation: without S9, exposure time: 24 hours | 1.44 | 2.48 | 69.9
